Among all 220,000 compounds or so, about 16,000 (7.3%) were called active. Inconclusive means that the source gave no clear call. Such entries were picked first, then a sample of the others. Calls follow the shape of the dose curve; as a rule, active = well fitted inhibition curve with a large enough effect (not every such curve was filed as active); inconclusive = small, poorly fitted or top-dose-only effect, or another doubt; inactive = no such curve, though single readings can be large or run the other way. No potency is given beside an inconclusive call; the fits are too rough.
biological target: Aldehyde dehydrogenase 1A1 (Homo sapiens) (UniProt P00352); test: qHTS Assay for Inhibitors of Aldehyde Dehydrogenase 1 (ALDH1A1); details: Purified ALDH1A1, NADH fluorescence, propionaldehyde substrate; series mostly up to 75.3 µM;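 as to activity, negative = inhibition: plate controls were no enzyme wells and a reference inhibitor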
Sequence of UniProt P00352 (P00352 whole entry, looked up): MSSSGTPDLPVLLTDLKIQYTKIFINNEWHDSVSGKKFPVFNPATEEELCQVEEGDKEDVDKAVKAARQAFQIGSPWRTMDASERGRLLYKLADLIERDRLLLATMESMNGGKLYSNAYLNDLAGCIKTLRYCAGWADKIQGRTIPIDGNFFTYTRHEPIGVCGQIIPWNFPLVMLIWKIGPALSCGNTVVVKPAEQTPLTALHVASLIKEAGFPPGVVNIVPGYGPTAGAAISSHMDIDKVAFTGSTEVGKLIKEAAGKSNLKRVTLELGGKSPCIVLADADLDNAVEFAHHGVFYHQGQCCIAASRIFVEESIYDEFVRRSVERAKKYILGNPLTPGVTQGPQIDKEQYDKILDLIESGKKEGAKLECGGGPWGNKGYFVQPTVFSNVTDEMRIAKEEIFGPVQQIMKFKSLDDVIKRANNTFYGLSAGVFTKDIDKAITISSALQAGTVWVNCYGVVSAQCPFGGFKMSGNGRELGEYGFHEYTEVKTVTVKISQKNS
Potency is read from the fitted curve at half-maximal effect; tags tell the direction and shape of the fitted curve.

SMILES | Potency | activity, negative = inhibition
O=C(COC(=O)c1ccc(O)cc1)Nc1ccc(Cl)cc1 | active: 8.91 µM | 
COc1ccc(OC)c(NC(=O)CSc2nnc(N)s2)c1 | inconclusive [inhibitor, single point] | 
CC1CN(C2CCN(C(=O)COc3ccccc3)CC2)CC(C)O1 (stereo not drawn) | inconclusive [inhibitor, single point] | 
CNC(CC(=O)O)C(=O)O (stereo not drawn) | inactive | 
O=C(Cn1cnc2cc(Cl)ccc2c1=O)Nc1ccc2c(c1)OCO2 | inconclusive [inhibitor, single point] | 
O=C(c1csnn1)N1CCC[C@@]2(CCN(c3ccccc3)C2)C1 | inconclusive [inhibitor, single point] | 
Cc1ccc(C(=O)Nc2cccc([N+](=O)[O-])c2)cc1S(=O)(=O)Nc1ccc(NC(=O)c2ccccc2)cc1 | inconclusive [inhibitor, partial curve] | 
Cn1c(N)c(C(=O)c2ccc(Cl)cc2)c(=O)n(C)c1=O | inactive | 
Cc1ccc(S(=O)(=O)N2CCCC2C(=O)OCC(=O)Nc2ccc3c(c2)OCO3)cc1 (stereo not drawn) | inactive | 
CC(=O)N(CC(=O)Nc1sc(C)c(C)c1C(N)=O)Cc1ccccc1 | inconclusive [inhibitor, single point] | 
CCN(C(=O)COC(=O)c1cc(NS(=O)(=O)c2ccc(Cl)c([N+](=O)[O-])c2)ccc1O)C1CCCCC1 | inconclusive [inhibitor, single point] | 
Cc1ccc(NC(=S)NC2CCCCC2)cc1S(=O)(=O)N(C)C | inconclusive [inhibitor, single point] | 
COc1cc(/C=C(\C#N)c2nc3ccccc3s2)cc([N+](=O)[O-])c1O | inconclusive [inhibitor, single point] | 
Cc1nc(NCCCn2ccnc2)c2oc3ccccc3c2n1 | inconclusive [inhibitor, single point] | 
O=C(CSc1ncn[nH]1)c1ccc2c(c1)OCCO2 | inconclusive [inhibitor, single point] | 
C=CCOC(=O)COc1ccc2c(C)c(C)c(=O)oc2c1C | inconclusive [inhibitor, single point] | 
CC(C)C(OC(=O)c1cccs1)C(=O)NCc1ccco1 (stereo not drawn) | inconclusive [inhibitor, single point] | 
O=C(CSc1nnc(-c2cccs2)n1CC1CCCO1)c1cc2ccccc2o1 (stereo not drawn) | active: 28.2 µM | 
Cc1ccc(NC(=O)c2cc(N3C(=O)C=CC3=O)ccc2N2CCOCC2)cc1Cl | active: 0.251 µM | 
O=C(c1ccco1)N1CCC2(CCN(Cc3cc(C(F)(F)F)cc(C(F)(F)F)c3)CC2)CC1 | inconclusive [inhibitor, single point] | 
Cc1cc[n+](-c2nc3ccccc3nc2[N-]S(=O)(=O)c2ccccc2)cc1 | inconclusive [inhibitor, partial curve] | 
Cc1c(O)ccc2c3c(c(=O)oc12)CCCC3 | inconclusive [inhibitor, partial curve] | 
Cn1cc(/C=N/NC(=O)COc2ccccc2[N+](=O)[O-])c2ccccc21 | inactive | 
COc1ccc(Cn2nnnc2C(c2cccs2)N2CCOCC2)cc1 (stereo not drawn) | inactive | 
CCOC(=O)c1cc(-c2ccc(N3CCOCC3)cc2)nn1-c1ccccc1 | inactive | 

SMILES | Potency | activity, negative = inhibition
COc1cccc(Nc2ncnc3c2cnn3C)c1 | inactive | 
O=C(Cn1nnc(-c2ccccc2NC(=O)c2ccco2)n1)NC1CCCCC1 | inconclusive [inhibitor, single point] | 
COC(=O)C1C(=O)C2=C(CC1C)NC(C)=C(C(=O)OC(C)C)C2c1ccc(C)o1 (stereo not drawn) | inactive | 
CC(C)OC(=O)c1c(NC(=O)Cn2cnc([N+](=O)[O-])n2)sc2c1CCCC2 | active: 12.6 µM | 
COc1cc(-n2nc(C)c3c2OC(N)=C(C#N)C3c2ccccc2)c(Cl)c(Br)c1O (stereo not drawn) | inconclusive [inhibitor, single point] | 
CCCCn1c(N)c(NCC(C)C)c(=O)[nH]c1=O | inactive | 
Cc1ccccc1S(=O)(=O)O[C@@H]1NS(=O)(=O)c2ccccc21 |  | inactive: 17.5% [at 13.5 µM]
O=C(c1ccco1)n1nc(-c2ccco2)nc1SCc1ccccc1 | inactive | 
CC(C)C1CC(CCNCc2ccc(N(C)C)cc2)(c2ccccc2)CCO1 (stereo not drawn) | active: 20 µM | 
COc1cc(-c2nnc3sc(C4CCCCC4)nn23)cc(OC)c1OC | inconclusive [inhibitor, partial curve] | 
CCn1nc(C(=O)OCC(=O)c2cc(C)n(Cc3cccs3)c2C)c2ccccc2c1=O | inconclusive [inhibitor, partial curve] | 
O=C(Nc1ccccc1-c1nnn(CC(=O)N2CCCc3ccccc32)n1)c1ccco1 | inconclusive [inhibitor, partial curve] | 
O=C(NCc1cccs1)C1CC(c2ccc(Cl)c(Cl)c2)=NO1 (stereo not drawn) | inconclusive [inhibitor, single point] | 
C=CCNC(=O)c1ccccc1NC(=O)c1ccccc1 | inactive | 
CCSc1nnc(NC(=O)C2CCCN(S(=O)(=O)c3cnc[nH]3)C2)s1 (stereo not drawn) | inconclusive [inhibitor, single point] | 
CN(c1ccccc1)S(=O)(=O)c1cccc(C(=O)NCCc2ccc(O)c(O)c2)c1 | active: 28.2 µM | 
Cc1c(C(=O)c2ccc(F)cc2)c2ccccn2c1CCc1ccccn1 | inconclusive [inhibitor, single point] | 
O=c1c2c(n3nnnc3n1Cc1ccccc1)-c1ccccc1CC21CCCC1 | inconclusive [inhibitor, full curve] | 
NNC(=O)C(Cc1ccccc1)NC(=O)OCc1ccccc1 (stereo not drawn) | inconclusive [inhibitor, partial curve] | 
Cc1cc2c(cc1Cl)C(c1ccc3c(c1)OCO3)CC(=O)O2 (stereo not drawn) | inactive | 
Cc1ccc2cc(C)c3nnc(SCC(=O)Nc4nc5c(s4)CCCC5)n3c2c1C | inactive | 
COC(=O)c1ccc(S(=O)(=O)NCc2cccc(OC)c2)n1C | inconclusive [inhibitor, full curve, poor fit] | 
O=S(=O)(NCCOc1ccc(F)cc1)c1ccc2c(c1)OCCO2 | inconclusive [inhibitor, single point] | 
O=C1CCCCCN1CSc1nc2ccccc2s1 | active: 12.6 µM | 
CCOc1cccc(CNCCSc2nnnn2C)c1 | inactive | 

SMILES | Potency | activity, negative = inhibition
Cc1ccccc1Oc1nc2ccccn2c(=O)c1/C=C(\C#N)C(=O)Nc1c(C)n(C)n(-c2ccccc2)c1=O | inconclusive [inhibitor, single point] | 
COc1ccc(-c2noc(C3CCCN(S(=O)(=O)c4cccc(Cl)c4C)C3)n2)cc1OC (stereo not drawn) | inconclusive [inhibitor, partial curve] | 
COC(=O)c1c(NC(C)=O)sc(C(=O)Nc2ccccc2F)c1C | inconclusive [inhibitor, single point] | 
O=C(Cn1c(=O)oc2cc(S(=O)(=O)N3CCCCCC3)ccc21)NC1CCCCC1 | inactive | 
CCn1c(=O)c(=O)[nH]c2cc(C(=O)NCC3CCCCC3)ccc21 | inconclusive [inhibitor, partial curve] | 
C[N+](C)(CC#Cc1ccccc1)CC(=O)c1ccc(Cl)cc1 | inactive | 
Cc1cccc(C(=O)N2CCCN(C(=O)c3cccc(C)c3)CC2)c1 | inactive | 
Cc1ccc2cc(CN(CCCN(C)C)C(=S)NCc3ccccc3)c(=O)[nH]c2c1C | inconclusive [inhibitor, single point] | 
COc1ccc(Sc2ccc(/C=C3\C(=O)NN(c4ccccc4)C3=O)o2)cc1 | inconclusive [inhibitor, partial curve] | 
CSc1nc(N)nc(SCC(=O)C23CC4CC(CC(C4)C2)C3)c1C#N | active: 25.1 µM | 
Cc1nn(Cc2ccc(Cl)cc2)c(C)c1NC(=O)c1cc(-c2ccco2)on1 | inactive | 
CN(C)S(=O)(=O)c1ccc(C(=O)NNC(=O)C2COc3ccccc3O2)cc1 (stereo not drawn) | inconclusive [inhibitor, single point] | 
O=C(CN1CCc2ccccc2C1)N1CCN(S(=O)(=O)c2ccccc2)CC1 | inconclusive [inhibitor, partial curve] | 
CCC(C)(C)NC(=O)C(c1cccc(OC)c1OC)N(CC(C)C)C(=O)CCC(=O)Nc1cc(C)on1 (stereo not drawn) | inactive | 
CCc1ccc(/C=N/NC(=S)NCCc2ccccc2)cc1 | inactive | 
CCc1c(C)sc(NC(=O)c2cccs2)c1C(N)=O | inconclusive [inhibitor, partial curve] | 
O=C(COC(=O)c1cc(-c2cccc(Br)c2)nc2ccccc12)NCC1CCCO1 (stereo not drawn) | inconclusive [inhibitor, single point] | 
Cc1cccc(C)c1OCC(=O)N/N=C/c1cccn1C | inconclusive [inhibitor, single point] | 
COc1ccc(C(=O)Nc2nc(N3C(=O)c4ccccc4C3=O)n(-c3ccccc3)n2)cc1 | inactive | 
O=C(NCc1n[nH]c(=S)n1-c1cccc(C(F)(F)F)c1)c1ccc(S(=O)(=O)N2CCCC2)cc1 | inconclusive [inhibitor, partial curve] | 
O=C(NCc1ccccc1)C(c1ccco1)N(C(=O)c1ccccn1)c1ccc(F)cc1 (stereo not drawn) | inactive | 
CN(C)CCN(C)C(=O)c1ccc(-n2c(=O)c(=O)[nH]c3ccccc32)cc1 | inactive | 
CCOC(=O)c1nc(Nc2cc(C)cc(C)c2)c2ccccc2n1 | inactive | 
